# Measured values published in PubChem BioAssay (NCI).
# Where a structure was tested more than once in an assay, its records may differ in their call.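 Compound tested at a single concentration for 48 hours in 96-well plates; a percent growth value below 10 was scored as active.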 Certain results were filed several times, with different values. The other results are left out here. An entry can have further records. The screen tested this drug many times, at the concentration stated with the values; each value is one run. Signs of the kind (2×) stand for listed records that agree.
# Legend:
# UO-31 renal = test: NCI-60 one-dose screen, 48 h (100 = growth as untreated, 0 = no growth, -100 = all killed); conditions: 25 µM
# TK-10 renal = test: as above; conditions: 0.25 µM
smiles,measurement,setting,value
COc1cccc2c1C(=O)c1c(O)c3c(c(O)c1C2=O)C[C@@](O)(C(=O)CO)C[C@@H]3OC1CC(N)C(O)C(C)O1 (stereo not given in full),growth,UO-31 renal; runs of 1998,"active: -11.3 (2×), -22.7, 1.92, 0.629, -9.3, -10.2, -49.8, -27.5, -35.1, -22.8, -24.8, -10.1, -10, -24.1, -14.2, -18.2, -26.5, -15.6, -10.3, -30.6, -31, -24.2% and inactive: 13.8%, 11.1% (2×)"
same,growth,UO-31 renal; runs of 1999,"active: -8.57, -30.7, -0.186, -37.2, -27.3, -38, -100 (4×), -83.6, -92.8, -97.3, -87.9, -36.8, -94.2, -95.9, -96%"
same,growth,UO-31 renal; runs of 2000,"active: -71.3, -100, -77.1, -94.9%"
same,growth,TK-10 renal; runs of 2006,"inactive: 73.1%, 65.9%"
same,growth,TK-10 renal; runs of 2007,"inactive: 66.9, 39.2, 73.5, 58, 58.5, 61.3, 75.9, 64.2, 59.3, 71, 76, 70.2, 91.4, 51.7, 41.7, 62, 20.7, 62.8, 127, 82.1, 67.2, 46, 64.9, 76.7, 68.6, 78.7, 60.9, 68.1, 51, 70.3, 76.5, 74.1, 63.8, 60.8, 72.3, 55.1, 57.9, 53.4, 55.6, 56, 70.9%"
same,growth,TK-10 renal; runs of 2008,"inactive: 58.8, 61.9, 32.8, 51.8, 71, 71.9, 76.5, 73.6, 68.7, 73.2, 68.8, 67.8 (2×), 65.1 (2×), 70.9, 37, 71.2, 61.5, 59.7, 66.3, 41.9, 58.6, 53.5, 65.9 (2×), 82.7, 68.6, 63.1, 92.2, 44.6 (2×), 134, 64.1, 49.1, 38.9, 47.6, 43.3, 35.1, 47.5, 33.7, 44.5, 76, 70.5, 81.8, 70.8, 91.4, 77.7, 51.2, 60.7 (2×), 79, 64.2, 58.5, 46, 83.1, 61.8, 67.3%"
same,growth,TK-10 renal; runs of 2009,"inactive: 72, 68.4 (2×), 59.5, 70.2, 62.9, 65.6 (2×), 66.5, 76.2, 79.7, 62.4, 65 (2×), 62, 61.5, 60.6, 67.4 (2×), 67.7, 65.2 (2×), 77.4 (2×), 70.1, 78.4, 55.2, 74.6, 62.7, 58.1, 55, 61.7 (2×), 59, 63.3, 65.4, 60.7, 55.8, 37.7, 58.3, 59.9, 55.1, 68.1, 76.5, 61.8, 52.5, 55.5, 69.7, 73.2, 80.2, 25.1, 50.2, 30.6, 34.5, 54.3, 33.8, 51, 35.2, 67.2, 67, 80.7, 69.1, 79, 80.1, 63.8, 61, 45.5, 48, 54.5, 44.9%"
same,growth,TK-10 renal; runs of 2010,"inactive: 65.9, 67.9, 46.8, 64.5, 67.5, 59.7, 83, 77.9, 79.1, 85.8, 73.8, 55.5, 57.5, 64.9, 54.3, 55.7, 66.7, 52.6, 40.8, 36.7, 29.3, 31, 48.5, 52, 29.7 (2×), 39.2, 30.5, 41.2, 46.5, 41, 27.3, 32.7, 38.2 (2×), 51.1, 69, 66.5, 70.5, 56.3, 50, 63.1 (2×), 67.2, 49.6, 30.9, 40.1, 54.5, 53.1, 46.1, 33.7, 44.3, 56, 54.2%"
same,growth,TK-10 renal; runs of 2011,"inactive: 62.3 (2×), 52.7, 42.5, 51.8, 70, 63 (2×), 53, 26.4, 73.5, 42.9, 65.5, 60.6, 68.7, 74.8, 73.6, 69.1, 78.6, 72.2 (2×), 76.9, 71.6, 78.7, 74.2, 89.2, 60.2, 59.2, 66.5, 54.5, 58.1, 65.1, 86.2, 54.3, 52.3, 66.7, 68.2, 64.7, 54.9, 85.8 (2×), 76, 61.8, 76.7, 80.4, 85.1, 78, 93.4, 59.6, 56.3, 50.4, 57.8, 53.8, 56.6, 65, 71.3, 59.1, 57.6%"
same,growth,TK-10 renal; runs of 2012,"inactive: 75.1, 60.4, 71.7 (2×), 75.5, 55.9 (2×), 42.7, 72.7, 79.4, 74.9 (2×), 77.5, 82.7, 58.1, 41.7, 48.8, 43.7, 57, 49.9, 43.1, 54.2, 58.6, 68.9, 63, 62.8, 67.6, 67.5, 83.2, 77.8, 78.6, 82.4, 64.6, 71.2 (2×), 60.2, 82.5, 57.6, 56.6, 62.1, 74.2, 66.5, 71, 74.1, 67.9, 79.3, 83.6, 80.6, 76.2, 70.9, 76.5, 58.2, 59.1 (2×), 50.6, 65.8, 60.7, 67.4, 72.3, 70.1, 53.2, 49.4, 68, 70%"
same,growth,TK-10 renal; runs of 2013,"inactive: 48.7, 76, 69.1, 51.5, 54.8, 65, 65.2 (2×), 70.5, 72.9, 71.7 (2×), 67.4, 76.3, 64.6, 70.1, 49.7, 64.2, 73.9, 70.7 (2×), 77.4, 71.5, 74.1, 70, 73, 77 (2×), 66.8, 84.6, 70.2 (2×), 73.7 (2×), 60.6, 68.8, 65.6, 67.9, 72.1, 57.9, 68.4, 63.4, 62.2, 70.4, 66.9, 60.4, 59, 80.4, 80.5, 76.5, 69, 62.8, 72, 69.6, 65.7, 54.5, 65.1, 66.6, 47.1, 71.6, 62.3, 78.1, 68.3, 62.9, 60.8, 81.8%"
same,growth,TK-10 renal; runs of 2014,"inactive: 62.9, 61.7, 66.6 (2×), 63.1 (2×), 63, 68, 65.5, 66.3, 38, 60.7, 68.6 (2×), 70.1, 72.4, 68.7 (2×), 72.8, 76.3, 76, 86.1, 85.7, 67.2 (2×), 63.7, 66.8, 66, 55.3, 57.2, 59.9, 56.8, 55.5, 53.8, 63.5, 62.5, 56.4, 57.3 (2×), 66.9 (2×), 74.5, 72.3, 71.7, 78.6, 76.9, 79.1, 75.6, 70.5, 70.6, 74.2, 90.7, 89.6, 84.3, 58, 51.3, 43.2 (2×), 43.8, 64.8, 30.3, 50.9 (2×), 57.1, 56, 33.6, 53.5, 55.7 (2×), 59.1, 61.6, 51.1, 58.9, 48.1, 57.5, 34.9, 51.8, 50.8, 62.3, 70.7, 45.9, 46.1, 54.4, 45, 64.9%"
same,growth,TK-10 renal; runs of 2015,"inactive: 66.7, 59.2, 43, 68.7, 57.5, 51.7, 57.4, 61.9 (2×), 60.4 (2×), 49.1, 45.6, 53.8, 53.2, 55.6 (2×), 62.9 (2×), 59.3, 50.2, 46.3, 60.9, 41.6, 56.2, 52, 57.8, 49.3, 47.8, 46.5, 55.9, 52.5, 54.7, 47.3, 48.8, 48.2, 52.3, 53.6, 58.6, 54.2, 51.9, 56.6, 43.7, 62, 59, 65.8, 59.7, 65.6, 45.3, 62.3, 66.9, 72.1, 74.7, 54.6, 55.1, 70.7, 71.1, 62.8, 56.7, 57.2, 47.4, 55, 50.1, 63.4, 70.8, 61.3, 44.6, 75.3 (2×), 75.8, 69.6, 70.1, 76.3, 71.6, 79.6, 76.7, 77.3, 70, 80.2, 81.2, 85.4, 51.3, 33.5%"
same,growth,TK-10 renal; runs of 2016,"inactive: 59.3 (2×), 54.4, 59 (2×), 47.3, 60.3, 77.8, 66.2 (2×), 72.9, 69, 70.2, 59.4 (2×), 61.8, 74.7, 73.7, 64.8, 55, 53.2 (2×), 51, 34.2, 52.6, 46.2, 53.5, 53.6, 51.4 (2×), 51.1, 50, 53.3, 53.8, 67, 64.6, 64.1 (2×), 66.9, 62.9, 73.2, 75.5 (2×), 71.9, 68.8, 72, 69.3, 71.4, 67.3, 58, 58.8, 67.9, 72.1, 58.5, 56.7, 61.9, 71, 68.2, 80.5, 81.9, 65.8, 71.2, 78.4, 78.9, 80.3, 83.6, 76.9, 79.3, 56.1, 50.7, 61, 60.6, 61.3, 48.4%"
same,growth,TK-10 renal; runs of 2017,"inactive: 61.5 (3×), 60.3 (3×), 51.5, 62.1 (2×), 58.5 (2×), 57.6, 59.9 (3×), 55.9, 49.8, 55.3, 57, 61, 63.3, 58.9 (2×), 64.2, 57.9, 58.3, 59.2, 59, 56.9, 51, 50.7, 58.8 (2×), 52.8, 49.5, 44.9, 54.2, 59.7, 54.5, 55.4 (2×), 53.1, 62, 56.3, 57.4, 52.3 (3×), 54.8, 49.1, 59.4, 58.6, 63.9, 68.3, 59.8, 67.1, 65, 51.6, 55.1, 60.4 (2×), 54.7, 43.5, 48.8 (2×), 56, 56.1, 59.3, 56.5, 62.2, 62.8, 63, 62.6, 64.1 (2×), 73.5, 70.4, 67.7, 63.1, 54.6, 44.8, 39.6, 76.2, 71.1, 51.9, 46.4, 53.8, 44.5%"
